Test results from the supplement of paper PMC4604168 (melanoma cell lines).
The list shows a part of the results. Many values rest on one well or one pass, so single values are uncertain.
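Also: cells treated in 1,536-well plates, then fixed and DAPI-stained, with nuclei counted from automated high-throughput microscope images.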

Each compound was assayed on A101D (assay: cell count relative to DMSO control; melanoma cells; higher = more viable cells). Conditions: library dose: standard library concentration; 72 h.
`C=CCNC1=C2C[C@@H](C)C[C@H](OC)[C@H](O)[C@@H](C)/C=C(\C)[C@H](OC(N)=O)[C@@H](OC)/C=C\C=C(/C)C(=O)NC(=CC1=O)C2=O` [Tanespimycin] + c1cc(-c2cnn3cc(-c4ccc(OCCN5CCCCC5)cc4)cnc23)ccn1 [Dorsomorphin] (first compound 0.01 µM, partner dose 2 µM) was tested, and the cell count was 71.3%. `C[C@@H](Oc1cc(-c2cnn(C3CCNCC3)c2)cnc1N)c1c(Cl)ccc(F)c1Cl` [Crizotinib] + C[C@]1(c2nc3c(C(N)=O)cccc3[nH]2)CCCN1 [Veliparib] (first compound 1 µM, partner dose 7 µM) gave a cell count of 94.3%. Work on `C[C@@H](Oc1cc(-c2cnn(C3CCNCC3)c2)cnc1N)c1c(Cl)ccc(F)c1Cl` [Crizotinib] + O=C(Nc1cccc(Cl)c1)Nc1ncc(CCNc2ncnc3ccsc23)s1 [SNS314] (first compound 1 µM, partner dose 0.004 µM) yielded a cell count of 74.6%. In the case of `CS(=O)(=O)CCNCc1ccc(-c2ccc3ncnc(Nc4ccc(OCc5cccc(F)c5)c(Cl)c4)c3c2)o1` [lapatinib] + Nc1ccn([C@@H]2O[C@H](CO)[C@@H](O)C2(F)F)c(=O)n1 [gemcitabine] (first compound 4 µM, partner dose 0.002 µM), the cell count is reported as 83%. In the case of `C=CCNC1=C2C[C@@H](C)C[C@H](OC)[C@H](O)[C@@H](C)/C=C(\C)[C@H](OC(N)=O)[C@@H](OC)/C=C\C=C(/C)C(=O)NC(=CC1=O)C2=O` [Tanespimycin] + Cc1cc([N+](=O)[O-])ccc1NS(=O)(=O)c1cc(Cl)ccc1Cl [FH535] (first compound 0.01 µM, partner dose 5 µM), the cell count is reported as 69.4%. With `CN1CCN(c2ccc3nc(-c4c(N)c5c(F)cccc5[nH]c4=O)[nH]c3c2)CC1` [Dovitinib] + CO[C@@H]1[C@H](N(C)C(=O)c2ccccc2)C[C@H]2O[C@]1(C)n1c3ccccc3c3c4c(c5c6ccccc6n2c5c31)C(=O)NC4 [Midostaurin] (first compound 0.5 µM, partner dose 0.4 µM) the cell count was 54.9%. `CNC(=O)c1cc(Oc2ccc(NC(=O)Nc3ccc(Cl)c(C(F)(F)F)c3)cc2)ccn1` [sorafenib] + CC(C)CCN1c2nc(Nc3cc(F)c(O)c(F)c3)ncc2N(C)C(=O)C1C [BID1870] (first compound 2 µM, partner dose 1 µM) was tested, and the cell count was 89.3%. `C[C@@H](Oc1cc(-c2cnn(C3CCNCC3)c2)cnc1N)c1c(Cl)ccc(F)c1Cl` [Crizotinib] + Cn1c(Nc2ccc(C(F)(F)F)cc2)nc2cc(Oc3ccnc(-c4ncc(C(F)(F)F)[nH]4)c3)ccc21 [CHIR265] (first compound 1 µM, partner dose 0.4 µM) showed a cell count of 61.7%. In the case of `CS(=O)(=O)CCNCc1ccc(-c2ccc3ncnc(Nc4ccc(OCc5cccc(F)c5)c(Cl)c4)c3c2)o1` [lapatinib] + O=C(Nc1cccc(Cl)c1)Nc1ncc(CCNc2ncnc3ccsc23)s1 [SNS314] (first compound 4 µM, partner dose 0.004 µM), the cell count is reported as 62.8%. `CN1CCN(c2ccc3nc(-c4c(N)c5c(F)cccc5[nH]c4=O)[nH]c3c2)CC1` [Dovitinib] + CN(NC(=O)CC(=O)NN(C)C(=S)c1ccccc1)C(=S)c1ccccc1 [STA4783] (first compound 0.5 µM, partner dose 0.03 µM) was tested, and the cell count was 55.3%. Compound `C=CCNC1=C2C[C@@H](C)C[C@H](OC)[C@H](O)[C@@H](C)/C=C(\C)[C@H](OC(N)=O)[C@@H](OC)/C=C\C=C(/C)C(=O)NC(=CC1=O)C2=O` [Tanespimycin] + O=C(O)C(=O)Nc1sc2c(c1C(=O)O)CCNC2 [TCS401] (first compound 0.01 µM, partner dose 8.33333 µM) has a cell count of 84.9%. In the case of `C[C@@H](Oc1cc(-c2cnn(C3CCNCC3)c2)cnc1N)c1c(Cl)ccc(F)c1Cl` [Crizotinib] + Cc1nc(Nc2ncc(C(=O)Nc3c(C)cccc3Cl)s2)cc(N2CCN(CCO)CC2)n1 [dasatanib] (first compound 1 µM, partner dose 0.02 µM), the cell count is reported as 82.4%.

The compounds below were run on A2058 in the same assay as above. Conditions: library dose: standard library concentration; 72 h.
For `CN1CCN(c2ccc3nc(-c4c(N)c5c(F)cccc5[nH]c4=O)[nH]c3c2)CC1` [Dovitinib] + CC(=O)c1c(C)c2cnc(Nc3ccc(N4CCNCC4)cn3)nc2n(C2CCCC2)c1=O [palbociclib] (first compound 0.5 µM, partner dose 0.2 µM), the cell count was 29.7%. `C[C@@H](Oc1cc(-c2cnn(C3CCNCC3)c2)cnc1N)c1c(Cl)ccc(F)c1Cl` [Crizotinib] + COc1cc(Nc2ncc(F)c(Nc3ccc4c(n3)NC(=O)C(C)(C)O4)n2)cc(OC)c1OC [Tamatinib] (first compound 1 µM, partner dose 2 µM) gave a cell count of 69.4%. For `C[C@@H](Oc1cc(-c2cnn(C3CCNCC3)c2)cnc1N)c1c(Cl)ccc(F)c1Cl` [Crizotinib] + Cc1cc(N2CCOCC2)cc2[nH]c(-c3c(NC[C@@H](O)c4cccc(Cl)c4)cc[nH]c3=O)nc12 [BMS536924] (first compound 1 µM, partner dose 1 µM), the cell count was 80.9%. Work on `CS(=O)(=O)CCNCc1ccc(-c2ccc3ncnc(Nc4ccc(OCc5cccc(F)c5)c(Cl)c4)c3c2)o1` [lapatinib] + COc1ccc(Cl)c(Nc2nc3ccccc3nc2NS(=O)(=O)c2cccc(NC(=O)C(C)(C)N)c2)c1 [XL147] (first compound 4 µM, partner dose 4 µM) yielded a cell count of 77.6%. Work on `C=CCNC1=C2C[C@@H](C)C[C@H](OC)[C@H](O)[C@@H](C)/C=C(\C)[C@H](OC(N)=O)[C@@H](OC)/C=C\C=C(/C)C(=O)NC(=CC1=O)C2=O` [Tanespimycin] + O=C(Nc1cccc(Cl)c1)Nc1ncc(CCNc2ncnc3ccsc23)s1 [SNS314] (first compound 0.01 µM, partner dose 0.004 µM) yielded a cell count of 62.3%. `CN1CCN(c2ccc3nc(-c4c(N)c5c(F)cccc5[nH]c4=O)[nH]c3c2)CC1` [Dovitinib] + C[C@@H]1CCN(C(=O)CC#N)C[C@@H]1N(C)c1ncnc2[nH]ccc12 [CP690550] (first compound 0.5 µM, partner dose 5 µM) was tested, and the cell count was 27.8%. With `CS(=O)(=O)CCNCc1ccc(-c2ccc3ncnc(Nc4ccc(OCc5cccc(F)c5)c(Cl)c4)c3c2)o1` [lapatinib] + OCCn1cc(-c2cnc3nnn(Cc4ccc5ncccc5c4)c3n2)cn1 [PF04217903] (first compound 4 µM, partner dose 5 µM) the cell count was 114%. For `C=CCNC1=C2C[C@@H](C)C[C@H](OC)[C@H](O)[C@@H](C)/C=C(\C)[C@H](OC(N)=O)[C@@H](OC)/C=C\C=C(/C)C(=O)NC(=CC1=O)C2=O` [Tanespimycin] + CO[C@@H]1[C@H](N(C)C(=O)c2ccccc2)C[C@H]2O[C@]1(C)n1c3ccccc3c3c4c(c5c6ccccc6n2c5c31)C(=O)NC4 [Midostaurin] (first compound 0.01 µM, partner dose 0.4 µM), the cell count was 60.1%. `CNC(=O)c1cc(Oc2ccc(NC(=O)Nc3ccc(Cl)c(C(F)(F)F)c3)cc2)ccn1` [sorafenib] + Nc1cccc2c1CN(C1CCC(=O)NC1=O)C2=O [lenalidomide] (first compound 2 µM, partner dose 5 µM) was tested, and the cell count was 115%. For `C[C@@H](Oc1cc(-c2cnn(C3CCNCC3)c2)cnc1N)c1c(Cl)ccc(F)c1Cl` [Crizotinib] + C=CCNC1=C2C[C@@H](C)C[C@H](OC)[C@H](O)[C@@H](C)/C=C(\C)[C@H](OC(N)=O)[C@@H](OC)/C=C\C=C(/C)C(=O)NC(=CC1=O)C2=O [Tanespimycin] (first compound 1 µM, partner dose 0.01 µM), the cell count was 101%. Compound `CS(=O)(=O)CCNCc1ccc(-c2ccc3ncnc(Nc4ccc(OCc5cccc(F)c5)c(Cl)c4)c3c2)o1` [lapatinib] + OCc1c[nH]c2ccccc12 [Indole-3-carbinol] (first compound 4 µM, partner dose 4 µM) has a cell count of 87.4%. `C=CCNC1=C2C[C@@H](C)C[C@H](OC)[C@H](O)[C@@H](C)/C=C(\C)[C@H](OC(N)=O)[C@@H](OC)/C=C\C=C(/C)C(=O)NC(=CC1=O)C2=O` [Tanespimycin] + Cc1cc(N2CCOCC2)cc2[nH]c(-c3c(NC[C@@H](O)c4cccc(Cl)c4)cc[nH]c3=O)nc12 [BMS536924] (first compound 0.01 µM, partner dose 1 µM) gave a cell count of 95.9%. Work on `CS(=O)(=O)CCNCc1ccc(-c2ccc3ncnc(Nc4ccc(OCc5cccc(F)c5)c(Cl)c4)c3c2)o1` [lapatinib] + Cn1c(Nc2ccc(C(F)(F)F)cc2)nc2cc(Oc3ccnc(-c4ncc(C(F)(F)F)[nH]4)c3)ccc21 [CHIR265] (first compound 4 µM, partner dose 0.4 µM) yielded a cell count of 45.6%. For `C[C@@H](Oc1cc(-c2cnn(C3CCNCC3)c2)cnc1N)c1c(Cl)ccc(F)c1Cl` [Crizotinib] + NC(=O)Nc1cc(-c2cccc(F)c2)sc1C(=O)N[C@H]1CCCNC1 [AZD7762] (first compound 1 µM, partner dose 0.1 µM), the cell count was 83.1%. Work on `CN1CCN(c2ccc3nc(-c4c(N)c5c(F)cccc5[nH]c4=O)[nH]c3c2)CC1` [Dovitinib] + OCc1c[nH]c2ccccc12 [Indole-3-carbinol] (first compound 0.5 µM, partner dose 4 µM) yielded a cell count of 64.4%.
